# The supplement of paper PMC8728848
# The list shows a part of the results.
# B1: MVL (Microcystis viridis), Q9RHG4 (protein)
# chain: MASYKVNIPAGPLWSNAEAQQVGPKIAAAHQGNFTGQWTTVVESAMSVVEVELQVENTGIHEFKTDVLAGPLWSNDEAQKLGPQIAASYGAEFTGQWRTIVEGVMSVIQIKYTF
# Tests used:
# Assay in all cases: glycan array binding signal (z-score within array); higher = stronger binding
# Conditions in all cases: glycan notation: IUPAC condensed, linker removed
# Fuc(a1-3)GlcNAc = molecular target: Fuc(a1-3)GlcNAc
# Summary of the method: (§1)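 Glycan array data were curated from 3228 arrays in the Consortium for Functional Glycomics database and kept only where the protein sequence was available. Glycan names were converted to IUPAC-condensed notation, and columns mapping to the same glycan were averaged. The binding signal is a within-array Z-score, averaged across arrays of the same protein sequence at different concentrations or buffers and across linkers. Negative Z-scores can be read as non-binding.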
# [1] = molecular target: Fuc(a1-3)[Gal(b1-4)]Glc6S
# Summary of the method: as §1
# [2] = molecular target: Fuc(a1-3)[Gal(b1-4)]GlcNAc
# Summary of the method: as §1
# [3] = molecular target: Fuc(a1-3)[Gal(b1-4)]GlcNAc(b1-2)Man(a1-3)[Fuc(a1-3)[Gal(b1-4)]GlcNAc(b1-2)Man(a1-6)]Man(b1-4)GlcNAc(b1-4)GlcNAc
# Summary of the method: as §1
# [4] = molecular target: Fuc(a1-3)[Gal(b1-4)]GlcNAc(b1-2)Man(a1-6)[Gal(b1-4)GlcNAc(b1-2)Man(a1-3)]Man(b1-4)GlcNAc(b1-4)GlcNAc
# Summary of the method: as §1
# [5] = molecular target: Fuc(a1-3)[Gal(b1-4)]GlcNAc(b1-3)Gal(b1-3)[Fuc(a1-4)]GlcNAc
# Summary of the method: as §1
# [6] = molecular target: Fuc(a1-3)[Gal(b1-4)]GlcNAc(b1-3)Gal(b1-4)[Fuc(a1-3)]GlcNAc
# Summary of the method: as §1
# [7] = molecular target: Fuc(a1-3)[Gal(b1-4)]GlcNAc(b1-3)Gal(b1-4)[Fuc(a1-3)]GlcNAc(b1-3)Gal(b1-4)[Fuc(a1-3)]GlcNAc
# Summary of the method: as §1
# [8] = molecular target: Fuc(a1-3)[Gal(b1-4)]GlcNAc(b1-4)Gal(b1-4)[Fuc(a1-3)]GlcNAc
# Summary of the method: as §1
# [9] = molecular target: Fuc(a1-3)[Gal(b1-4)]GlcNAc(b1-4)Gal(b1-4)[Fuc(a1-3)]GlcNAc(b1-4)Gal(b1-4)[Fuc(a1-3)]GlcNAc
# Summary of the method: as §1
# [10] = molecular target: Fuc(a1-3)[Gal(b1-4)]GlcNAc6S
# Summary of the method: as §1
# [11] = molecular target: Fuc(a1-3)[Gal3S(b1-4)]Glc6S
# Summary of the method: as §1
# [12] = molecular target: Fuc(a1-3)[Gal3S(b1-4)]GlcNAc
# Summary of the method: as §1
# [13] = molecular target: Fuc(a1-3)[Gal3S(b1-4)]GlcNAc6S
# Summary of the method: as §1
# [14] = molecular target: Fuc(a1-3)[GalNAc(b1-4)]GlcNAc
# Summary of the method: as §1
# [15] = molecular target: Fuc(a1-3)[Neu5Ac(a2-3)]Gal(b1-4)GlcNAc(b1-3)GalNAc
# Summary of the method: as §1
# Fuc(a1-4)GlcNAc = molecular target: Fuc(a1-4)GlcNAc
# Summary of the method: as §1
# Fuc(b1-3)GlcNAc = molecular target: Fuc(b1-3)GlcNAc
# Summary of the method: as §1
# Gal(a1-2)Gal = molecular target: Gal(a1-2)Gal
# Summary of the method: as §1
# Gal(a1-3)Gal = molecular target: Gal(a1-3)Gal
# Summary of the method: as §1
# Gal(a1-3)Gal(b1-3)GlcNAc = molecular target: Gal(a1-3)Gal(b1-3)GlcNAc
# Summary of the method: as §1
# Gal(a1-3)Gal(b1-4)Glc = molecular target: Gal(a1-3)Gal(b1-4)Glc
# Summary of the method: as §1
# Gal(a1-3)Gal(b1-4)GlcNAc = molecular target: Gal(a1-3)Gal(b1-4)GlcNAc
# Summary of the method: as §1
# [16] = molecular target: Gal(a1-3)Gal(b1-4)[Fuc(a1-3)]GlcNAc
# Summary of the method: as §1
# [17] = molecular target: Gal(a1-3)Gal(b1-4)[Fuc(a1-3)]GlcNAc(b1-2)Man(a1-3)[Gal(a1-3)Gal(b1-4)[Fuc(a1-3)]GlcNAc(b1-2)Man(a1-6)]Man(b1-4)GlcNAc(b1-4)GlcNAc
# Summary of the method: as §1
# Gal(a1-3)GalNAc = molecular target: Gal(a1-3)GalNAc
# Summary of the method: as §1
# [18] = molecular target: Gal(a1-3)[Gal(a1-4)]Gal(b1-4)GlcNAc
# Summary of the method: as §1
# Gal(a1-4)Gal(b1-4)Glc = molecular target: Gal(a1-4)Gal(b1-4)Glc
# Summary of the method: as §1
# Gal(a1-4)Gal(b1-4)GlcNAc = molecular target: Gal(a1-4)Gal(b1-4)GlcNAc
# Summary of the method: as §1
# [19] = molecular target: Gal(a1-4)Gal(b1-4)GlcNAc(b1-3)Gal(b1-4)Glc
# Summary of the method: as §1
# Gal(a1-4)GlcNAc = molecular target: Gal(a1-4)GlcNAc
# Summary of the method: as §1
# Gal(a1-6)Glc = molecular target: Gal(a1-6)Glc
# Summary of the method: as §1
# Gal(b1-2)Gal = molecular target: Gal(b1-2)Gal
# Summary of the method: as §1
# Gal(b1-3)Gal = molecular target: Gal(b1-3)Gal
# Summary of the method: as §1
# Gal(b1-3)Gal(b1-4)GlcNAc = molecular target: Gal(b1-3)Gal(b1-4)GlcNAc
# Summary of the method: as §1
# [20] = molecular target: Gal(b1-3)Gal(b1-4)GlcNAc(b1-2)Man(a1-3)[Gal(b1-3)Gal(b1-4)GlcNAc(b1-2)Man(a1-6)]Man(b1-4)GlcNAc(b1-4)GlcNAc
# Summary of the method: as §1
# Gal(b1-3)GalNAc = molecular target: Gal(b1-3)GalNAc
# Summary of the method: as §1
# [21] = molecular target: Gal(b1-3)GalNAc(a1-3)[Fuc(a1-2)]Gal(b1-4)Glc
# Summary of the method: as §1
# [22] = molecular target: Gal(b1-3)GalNAc(a1-3)[Fuc(a1-2)]Gal(b1-4)GlcNAc
# Summary of the method: as §1
# [23] = molecular target: Gal(b1-3)GalNAc(b1-3)Gal(a1-4)Gal(b1-4)Glc
# Summary of the method: as §1
# [24] = molecular target: Gal(b1-3)GalNAc(b1-4)Gal(b1-4)Glc
# Summary of the method: as §1
# [25] = molecular target: Gal(b1-3)GalNAc(b1-4)[Neu5Ac(a2-3)]Gal(b1-4)Glc
# Summary of the method: as §1
# Gal(b1-3)GlcNAc = molecular target: Gal(b1-3)GlcNAc
# Summary of the method: as §1
# [26] = molecular target: Gal(b1-3)GlcNAc(b1-2)Man(a1-3)[Gal(b1-3)GlcNAc(b1-2)Man(a1-6)]Man(b1-4)GlcNAc(b1-4)GlcNAc
# Summary of the method: as §1
# [27] = molecular target: Gal(b1-3)GlcNAc(b1-2)Man(a1-3)[Gal(b1-3)GlcNAc(b1-2)Man(a1-6)]Man(b1-4)GlcNAc(b1-4)[Fuc(a1-6)]GlcNAc
# Summary of the method: as §1
binder,measurement,setting,value
B1,glycan array binding signal (z-score),Fuc(a1-3)GlcNAc,-0.234
same,glycan array binding signal (z-score),[1],-0.22
same,glycan array binding signal (z-score),[2],-0.239
same,glycan array binding signal (z-score),[3],0.928
same,glycan array binding signal (z-score),[4],1.1
same,glycan array binding signal (z-score),[5],-0.224
same,glycan array binding signal (z-score),[6],-0.221
same,glycan array binding signal (z-score),[7],-0.232
same,glycan array binding signal (z-score),[8],-0.176
same,glycan array binding signal (z-score),[9],-0.233
same,glycan array binding signal (z-score),[10],-0.219
same,glycan array binding signal (z-score),[11],-0.21
same,glycan array binding signal (z-score),[12],-0.218
same,glycan array binding signal (z-score),[13],-0.227
same,glycan array binding signal (z-score),[14],-0.221
same,glycan array binding signal (z-score),[15],-0.167
same,glycan array binding signal (z-score),Fuc(a1-4)GlcNAc,-0.243
same,glycan array binding signal (z-score),Fuc(b1-3)GlcNAc,-0.237
same,glycan array binding signal (z-score),Gal(a1-2)Gal,-0.24
same,glycan array binding signal (z-score),Gal(a1-3)Gal,-0.24
same,glycan array binding signal (z-score),Gal(a1-3)Gal(b1-3)GlcNAc,-0.211
same,glycan array binding signal (z-score),Gal(a1-3)Gal(b1-4)Glc,-0.226
same,glycan array binding signal (z-score),Gal(a1-3)Gal(b1-4)GlcNAc,-0.239
same,glycan array binding signal (z-score),[16],-0.244
same,glycan array binding signal (z-score),[17],0.321
same,glycan array binding signal (z-score),Gal(a1-3)GalNAc,-0.229
same,glycan array binding signal (z-score),[18],-0.239
same,glycan array binding signal (z-score),Gal(a1-4)Gal(b1-4)Glc,-0.242
same,glycan array binding signal (z-score),Gal(a1-4)Gal(b1-4)GlcNAc,-0.241
same,glycan array binding signal (z-score),[19],-0.204
same,glycan array binding signal (z-score),Gal(a1-4)GlcNAc,-0.234
same,glycan array binding signal (z-score),Gal(a1-6)Glc,-0.241
same,glycan array binding signal (z-score),Gal(b1-2)Gal,-0.242
same,glycan array binding signal (z-score),Gal(b1-3)Gal,-0.24
same,glycan array binding signal (z-score),Gal(b1-3)Gal(b1-4)GlcNAc,-0.229
same,glycan array binding signal (z-score),[20],1.85
same,glycan array binding signal (z-score),Gal(b1-3)GalNAc,-0.225
same,glycan array binding signal (z-score),[21],-0.233
same,glycan array binding signal (z-score),[22],-0.228
same,glycan array binding signal (z-score),[23],-0.242
same,glycan array binding signal (z-score),[24],-0.211
same,glycan array binding signal (z-score),[25],-0.252
same,glycan array binding signal (z-score),Gal(b1-3)GlcNAc,-0.24
same,glycan array binding signal (z-score),[26],1.51
same,glycan array binding signal (z-score),[27],1.57
